# Measured values published in the supplement of paper PMC3334620.
# The full ranking holds about 33,000 sequences; the median of “E-score (-0.5 to 0.5)” is about -0.011, and the highest 2% start at about 0.28. The list shows a part of the results.
# Target: T1, Gcr1 (UniProt P07261)
# T1 sequence: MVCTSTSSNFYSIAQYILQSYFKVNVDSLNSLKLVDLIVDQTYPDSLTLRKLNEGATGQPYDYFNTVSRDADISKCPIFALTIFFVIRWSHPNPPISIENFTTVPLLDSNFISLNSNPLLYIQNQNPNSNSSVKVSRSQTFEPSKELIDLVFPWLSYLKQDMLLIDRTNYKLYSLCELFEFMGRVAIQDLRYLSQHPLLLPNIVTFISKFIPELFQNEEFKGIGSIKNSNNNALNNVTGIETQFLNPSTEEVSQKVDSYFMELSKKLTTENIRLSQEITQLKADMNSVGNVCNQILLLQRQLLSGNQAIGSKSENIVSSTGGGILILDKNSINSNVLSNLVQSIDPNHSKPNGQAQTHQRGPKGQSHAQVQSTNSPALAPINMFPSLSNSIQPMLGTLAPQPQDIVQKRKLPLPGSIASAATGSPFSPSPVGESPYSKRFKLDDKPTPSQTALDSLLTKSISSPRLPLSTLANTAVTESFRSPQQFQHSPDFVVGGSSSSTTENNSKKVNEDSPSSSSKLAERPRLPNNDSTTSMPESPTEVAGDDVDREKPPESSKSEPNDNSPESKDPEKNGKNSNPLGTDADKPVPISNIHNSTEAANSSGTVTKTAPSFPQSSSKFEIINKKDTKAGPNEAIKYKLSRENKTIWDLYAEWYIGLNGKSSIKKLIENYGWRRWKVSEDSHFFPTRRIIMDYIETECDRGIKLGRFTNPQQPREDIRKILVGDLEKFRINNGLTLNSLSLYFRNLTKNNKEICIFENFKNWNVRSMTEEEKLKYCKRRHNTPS
# Assay: PBM E-score (8-mer binding enrichment) (E-score (-0.5 to 0.5)); higher = stronger / more preferred TF binding; most listed sequences are background and not binding sites
# Settings: protein concentration: 100 nM; construct: GST-full length
# Summary of the method: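 PURExpress in vitro transcription/translation supplied GST-tagged yeast transcription factors, either full-length or DNA-binding domain. Applied at about 100-200 nM to universal all-10-mer Agilent arrays double-stranded by primer extension, the bound protein was detected with fluorescent anti-GST. E-scores, modified Wilcoxon-Mann-Whitney statistics, were given by the Universal PBM Analysis Suite to ungapped eight-base words pooled with their reverse complements after masliner normalisation.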
row,Sequence,PBM E-score
1,GATCCTAA,0.0225
2,ATCTTTGG,0.206
3,ATTCGAGG,-0.0418
4,CTCAACAA,0.0958
5,CGCGAAGA,0.161
6,ACTTTTAA,0.0489
7,CCACGAGC,-0.177
8,AGTTTCCC,0.058
9,GATCGGGC,-0.126
10,CCTGTAAA,0.102
11,CCCTGAAA,-0.00775
12,AAAGCCAA,0.0021
13,AGATATGG,0.0487
14,ACTCTCGC,-0.149
15,CCGACTGC,-0.012
16,ATCTGCAA,-0.158
17,ACTCAGCT,0.0545
18,AGGAACGA,-0.108
19,ACCGCGCT,-0.117
20,ACTGCGGA,-0.12
21,GGTCCAAA,0.0677
22,ATTTTAGA,-0.0231
23,AGACCCAC,-0.0401
24,AGCACGCC,-0.0243
25,AGGAGGTA,-0.126

row,Sequence,PBM E-score
1,GCAGACAA,-0.0872
2,CAGACTTC,0.0524
3,CCGCTTCA,-0.0817
4,AGAGAGAT,-0.145
5,GGCCCGAA,0.00433
6,ATGGGTTA,0.117
7,GTACTACA,0.00701
8,ACTTTTTG,0.107
9,ACCAGTCC,-0.0636
10,TAGAATGA,-0.0985
11,GGGCGACA,-0.0268
12,AATCATCG,-0.0542
13,GCCGCGAC,-0.0367
14,CATGTTAA,-0.0217
15,ATTAGGCC,-0.116
16,ATCCCGAG,-0.102
17,GAGGAATA,-0.146
18,GCCCCGGC,-0.0485
19,CGGTCCAC,-0.225
20,AAGAGCCG,0.0279
21,GGGCACGA,0.0341
22,CACTTGAC,-0.222
23,GACTTATC,0.106
24,AGCTACTA,0.254
25,CGGTTGAA,-0.0759

row,Sequence,PBM E-score
1,AGAGACGC,0.242
2,ATCTACTC,-0.0333
3,CTAGAGCA,-0.0684
4,ATTCTCAC,-0.109
5,GTACAGGA,0.229
6,ACTGTAAT,0.0127
7,ACGCCGTG,0.0969
8,AGTGGAGG,0.082
9,ACATGCGG,-0.138
10,ATCGGAGG,-0.0859
11,GCTATGCA,-0.193
12,CACAAGCC,-0.251
13,CGACGATC,-0.0215
14,CCCATTTA,0.293
15,AGCCACAT,0.0067
16,CGCGACAA,0.062
17,AACAGTGT,-0.0983
18,CGGCGCAA,-0.202
19,CCACATAA,0.109
20,TAATATTA,0.0519
21,ATCGCAAT,-0.0128
22,CCTCTCGC,-0.0389
23,GATTTGGC,-0.239
24,CTCACTTC,-0.21
25,ATGCCCGA,-0.135

row,Sequence,PBM E-score
1,AGCATAGA,-0.122
2,ACGTCACT,-0.0962
3,CGTAAACC,-0.125
4,TGAGGTAA,0.102
5,ATGGGGTC,-0.00428
6,GCTTAAGC,-0.235
7,CTCGGATA,-0.037
8,CTTCTTTC,0.0982
9,GCGCGAGA,-0.057
10,CGTCAAGA,0.0464
11,TAGACCTA,-0.0537
12,CGGAAACA,0.124
13,GAAGTCTC,-0.158
14,AGGCCGGA,-0.277
15,GATACACC,-0.0161
16,ACGAACGT,-0.0353
17,CATAGACG,0.0886
18,ATGATCAT,0.125
19,CAATAATC,-0.0899
20,AAAGGAGG,0.107
21,CGAGGGCC,-0.159
22,AGGTATAG,-0.00638
23,ATCCGAGA,0.135
24,CTACCTGC,-0.00056
25,CACGACCA,-0.235

row,Sequence,PBM E-score
1,CGCCCAGC,-0.0955
2,GAGTACCC,-0.0644
3,AGGCCGTC,-0.167
4,CACAGCCA,-0.286
5,AGCTGGGA,-0.0169
6,AGCCATCC,-0.0382
7,CTGAACAC,0.0232
8,GCGTAGGA,-0.0379
9,AGTTGCTC,-0.0698
10,GCGTCAAA,0.079
11,CGGTTACC,0.0927
12,ACACGCGT,0.138
13,AAATGACC,-0.0753
14,AAAACTTT,-0.0798
15,CACTGGTC,-0.0838
16,AACGGCCA,-0.0219
17,ATATTAAG,0.178
18,GCAACGCC,0.0857
19,GGCGGGGA,0.304
20,ACAGTGGT,0.0442
21,CCGATCTA,-0.0326
22,ATCCTTTC,-0.0852
23,GGCCTAAA,-0.143
24,ACTGTCGA,-0.0903
25,GACGTCGA,-0.0213

row,Sequence,PBM E-score
1,ACAGACAG,0.173
2,ACCAGTGG,0.0644
3,GAATGCCA,-0.0116
4,AGTAGCGG,0.0573
5,CGAAACGC,-0.157
6,GGGTCGAA,0.0379
7,ATACCGGA,0.222
8,CGCAGAAG,0.0198
9,AGATCTCC,-0.0801
10,AGGCCGGG,-0.13
11,CAAGTGCG,-0.0664
12,CGAATACC,0.0857
13,AGATCCAA,0.186
14,ATTGATCC,-0.0161
15,TAACGTTA,0.0661
16,TCGCGCGA,0.0435
17,AGAACTAG,-0.0756
18,CTGTGCTA,-0.0874
19,ACGACTGC,-0.179
20,AAACTCAC,0.0219
21,ATAGATTG,-0.00739
22,CGCCAAAG,0.0195
23,GAGCCACA,0.131
24,CGTAGGTA,-0.0658
25,CCCAATCA,0.108

row,Sequence,PBM E-score
1,ATGTGACA,-0.117
2,CTATCGCA,0.0478
3,GCCTTGTA,0.0885
4,CCGGCACC,0.28
5,CACGCGCG,-0.138
6,CTTATGCC,-0.184
7,GCAAGGGC,-0.192
8,ATCGATTG,-0.0409
9,AACGCCAG,-0.0702
10,CATGCCTA,-0.112
11,CCCTCGCC,-0.083
12,TTGCCAAA,-0.0737
13,TACAAACA,0.145
14,AACCCTGA,0.115
15,CCGCTTAC,-0.0217
16,GAACATGA,-0.0345
17,CGAAATTA,0.0526
18,ACAAGAAG,0.415
19,ATAAGAGG,0.145
20,GTGGCAGA,-0.115
21,ATGTGCCG,-0.205
22,CATCCCGG,-0.0358
